# Some of the results follow.
# T1: UNK ZnF1-6 (called full-length) (human, UniProt Q9C0B0 30-357)
# T1 sequence: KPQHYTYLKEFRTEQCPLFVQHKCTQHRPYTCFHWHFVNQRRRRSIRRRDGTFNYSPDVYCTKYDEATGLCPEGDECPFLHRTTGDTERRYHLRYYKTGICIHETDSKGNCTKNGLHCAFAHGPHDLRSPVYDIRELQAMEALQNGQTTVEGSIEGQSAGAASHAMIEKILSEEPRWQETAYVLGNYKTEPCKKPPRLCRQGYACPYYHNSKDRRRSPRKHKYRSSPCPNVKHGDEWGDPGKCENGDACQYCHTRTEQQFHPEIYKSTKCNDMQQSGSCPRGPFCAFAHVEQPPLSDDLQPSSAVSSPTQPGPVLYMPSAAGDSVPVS
# B1: chr1:112701350:112701454:-|3pUTR|ENSG00000155366|unk|FALSE|unique (ssRNA)
# RNA: GGGAGUUCUACAGUCCGACGAUCGGCUCCAUGCUGAAGGCUCCCAUUUUCAGUUCCCUCCUGCCCAGGACUGCAUUGUUUUCUAGCCCCGAGGUGGUGGCACGGGCCCUCCCUCCCAGCGCUCUGGGAGCCACGCCUAUGCCCCAACAGAGGAUUGAGCAUCA
# B2: ENSG00000110756:stop:overlap|stop_codon|ENSG00000110756|stop_codon|NA|stop_codon (ssRNA)
# RNA: GGGAGUUCUACAGUCCGACGAUCGGGCCUUGAUACAAAGCAUGCUUGAAAAAUGCGAUCGGUUUCUCUGGUCCCAGCAGGCCUAGUGGGAGAAGAUUCAGCAGGAUGUCAUGACAUUUUGAGAAAAACUAAAUCAUGCUCCUGCAACAGAGGAUUGAGCAUCA
# B3: chr20:50583650:50583751:+|3pUTR|ENSG00000196396|msi1|FALSE|unique (ssRNA)
# RNA: GGGAGUUCUACAGUCCGACGAUCUUCCUAAGCCUGUUGCUGAAGUCAUUGUCGCUCAGCAAUAGGGUGCAGUUUUCCAGGAAUAGGCAUUUGCCUAAUUCCUGGCAUGACACUCUAGUGACUUCCUGGUGAGGCCCAGCCUGUCAACAGAGGAUUGAGCAUCA
# B4: ENSG00000197555:stop:overlap|stop_codon|ENSG00000197555|stop_codon|NA|stop_codon (ssRNA)
# RNA: GGGAGUUCUACAGUCCGACGAUCACGCCUCGGACAAGCUGAAGAAGUUCACAGAAUGGGUCUUCAACACCAUAGACAUGAGCUAGGGAAGGCUGAGGAGGACAGGAGAAGGGCCCAGACACUCCCUCCAGUGAGUGUCCUGCACAACAGAGGAUUGAGCAUCA
# B5: chr4:183512276:183512377:+|3pUTR|ENSG00000168556|unk|total|mutant (ssRNA)
# RNA: GGGAGUUCUACAGUCCGACGAUCCUGCUUGUUUUGGGAAAAAAAAAUGCUUUUUUUCUCUUCCCGCUCUCCUGUGUGACUUUCCGGCAUGUCAUUUCACCUUGUCUGGGUGUCAGGUCAUUCACCUGUAAAAUGAGUUGGCUUCAACAGAGGAUUGAGCAUCA
# B6: chr2:15946816:15946917:+|3pUTR|ENSG00000134323|unk|total|mutant (ssRNA)
# RNA: GGGAGUUCUACAGUCCGACGAUCUAUAUGCCUUUUUCCCCGCCUGUUUCUUCCUGUUAAUGUAUUUGUUCAUGUUUGGUGCACCGAACUGGGUAAAUGCAAAGUUCUGUGUUUAAUUUCUUCAAAAUGUAUAUAUUCCGUGCUCAACAGAGGAUUGAGCAUCA
# B7: chr12:131960804:131960905:+|CDS|ENSG00000183495|unk|FALSE|bound_elsewhere (ssRNA)
# RNA: GGGAGUUCUACAGUCCGACGAUCCCCUCAGCAAGCCCGUCGGCACCCCAGUCUCCCAGUUAUCAAAUACAGCAGCUGAUGAAUAGGAGCCCUGCAACCGGGCAGAACGUGAACAUCACCCUGCAGAGCGUGGGCCCUGUCGUCCAACAGAGGAUUGAGCAUCA
# B8: ENSG00000111530:stop:overlap|stop_codon|ENSG00000111530|stop_codon|NA|stop_codon (ssRNA)
# RNA: GGGAGUUCUACAGUCCGACGAUCUCUUUGAAAGUAUCCAGAAAGAUUCAUCAUCUACUAACUUGGAAUCAAUGGACACUAGUUAGAUGUUUGUUCACCAUGGGGACCAUUACAUAUGACCAUACAAUGCACUGAAUUGACAGGCAACAGAGGAUUGAGCAUCA
# B9: chr17:18209558:18209659:+|3pUTR|ENSG00000091542|msi1|FALSE|unique (ssRNA)
# RNA: GGGAGUUCUACAGUCCGACGAUCGGUAGCUUCUAUCCACUCAGAUCCUGGAAGGCAGCAAGGUUUUGUGGAUCUAGAUUCAUUAGGAAUGUCUUCUUGUCAGCCAGGCCAGGACCCGGGCUUGCCAAGAGCAGAGGCCCUCCCCAACAGAGGAUUGAGCAUCA
# B10: chr10:71816509:71816622:-|3pUTR|ENSG00000197746|msi1_unk|total|mutant (ssRNA)
# RNA: GGGAGUUCUACAGUCCGACGAUCUGCCUACAUGUCCCUGGCUGUUGAGGCGCUGCUUCAGCCUGCACCCCUCCCUUGUCUCACCGAUGCUCCUUUUGACCUUUUCAAAUAAAUAUGGAUGGCGAGCUCCCCGGCCUCUGGCUUCAACAGAGGAUUGAGCAUCA
# B11: ENSG00000257103:stop:overlap|stop_codon|ENSG00000257103|stop_codon|NA|stop_codon (ssRNA)
# RNA: GGGAGUUCUACAGUCCGACGAUCGUCGUGGGGGCCGGGAGUUUGCGGAUUUUGAAUAUAGGAAAGACAACAAAGUUGCUGCAUAGUCUACAAACAAGUCUCUGAAAAUAGGUGAAUUUCUAGCUCUUCAUGGUCCUGAACAUUCAACAGAGGAUUGAGCAUCA
# B12: chr1:113797602:113797710:-|CDS|ENSG00000081019|unk|FALSE|bound_elsewhere (ssRNA)
# RNA: GGGAGUUCUACAGUCCGACGAUCUUUAUGACUCACCAGGAACAUUCUAUUCGUAGAAAUUUCUUAAAAACAGGUACUAAAUUUAGCAACUUUAUUCAUGAGGAACACCAGUCCAAUGGUGGUGCUCUUGUCCUUCAUGCUUACCAACAGAGGAUUGAGCAUCA
# B13: chr2:189033597:189033698:-|3pUTR|ENSG00000204262|msi1|total|mutant (ssRNA)
# RNA: GGGAGUUCUACAGUCCGACGAUCAAGAGUGGGGUAUACCGAGCCACAACACAUGUUUAUUUUGCUUGGCUGCAGUUGAAAAACCGAAAUCCGUGCCCUUUUGUGACCUCUCAUUCCAAGAUUGUCAAUUAAAAAUGAGUUUAACAACAGAGGAUUGAGCAUCA
# B14: chr8:8785477:8785578:-|3pUTR|ENSG00000147324|msi1|FALSE|unique (ssRNA)
# RNA: GGGAGUUCUACAGUCCGACGAUCUGUUUAUCUUUAUUUUUAUAAUAUGCAAAUACAUUUAAAUUUAUACAGUUUGAAGCUUCUAGCGUUAGUUCACACUGGGUGCAAUAUUCUGCAUGAGAACUGUGCCAAGAUGGGGCUGAUCAACAGAGGAUUGAGCAUCA
# B15: chr21:46004801:46004902:+|3pUTR|ENSG00000142156|msi1|total|mutant (ssRNA)
# RNA: GGGAGUUCUACAGUCCGACGAUCAGACUGGGGCCUGGACUGGACAUGAGAGCCCCUUGGUGCCACAGAGGGCUGUGUCUUACCCGAAACAACGCAAACCUCUCCUUCCUCAGAACCGUGAUGUGUUCGACGUUUUAUCAAAGGCAACAGAGGAUUGAGCAUCA
# B16: chr1:23559171:23559278:-|CDS|ENSG00000117318|unk|total|mutant (ssRNA)
# RNA: GGGAGUUCUACAGUCCGACGAUCAACCACUGCUACUCCCGCCUGCGGGAACUGGUACCCGGAGUCCCGAGAGGCACUCAGCUCCGCCAGGUGGAAAUCCUACAGCGCGUCAUCGACUACAUUCUCGACCUGCAGGCCGUCCUGCAACAGAGGAUUGAGCAUCA
# B17: chr17:80395157:80395266:+|3pUTR|ENSG00000173821|unk|total|mutant (ssRNA)
# RNA: GGGAGUUCUACAGUCCGACGAUCCUUCAAAGCCUUAACUGUCAAAUCUUGCAUUAUCUUGUUUGUACAGAAAUAUACUGGCCCCGCAGAGGCAAAAAAAAAAAAAAUGAAUUUUAUUUUACUUGUCACACCUGUCUUAAUAAACAACAGAGGAUUGAGCAUCA
# B18: chr2:37644049:37644150:-|3pUTR|ENSG00000163171|msi1|total|mutant (ssRNA)
# RNA: GGGAGUUCUACAGUCCGACGAUCUCCGGACAACUAACCAAGCCGACGAAACAAGUUCCCCCCGGCAGGGGUGUCCAAUAUUUCCGCUUCCCUGGACCGCAUUGGAAGAAUUUUCUUGGGCCACAUGUAAAACACACUAACACUCAACAGAGGAUUGAGCAUCA
# B19: ENSG00000119396:stop:overlap|stop_codon|ENSG00000119396|stop_codon|NA|stop_codon (ssRNA)
# RNA: GGGAGUUCUACAGUCCGACGAUCCCCCGCAGGGAGGCCGGCUAACCAGUGAACCCCAACCCCAGAGAGAAGGCUGUGGCUGCUAGUGACCUCUUUGCUGUGGCCCCUCAUUUGACCUUUCACCUCUGUCUGUUGGAAGCAGUACAACAGAGGAUUGAGCAUCA
# B20: chr1:32196777:32196878:+|3pUTR|ENSG00000084652|msi1|total|mutant (ssRNA)
# RNA: GGGAGUUCUACAGUCCGACGAUCUUUGAAGCCCGUUCAUUGUCCUGCAGGUCCCUUCAUCUUCCAUACCCCGCCCACUCUUUCCGCCCUUACCUUAAAUCUCUCAGAUAAGUUGGUUCACAAAGAAUGUUAAGUACUGAAUCACAACAGAGGAUUGAGCAUCA
# B21: chr16:46702281:46707703:-|three_prime_utr|ENSG00000140795|control|control|control (ssRNA)
# RNA: GGGAGUUCUACAGUCCGACGAUCUCACUACGUGUGAAAUGCUCUGAGUACCUUUCAAAUAUACCUACUUUUGGUGGUAAGUGUAGGGAUGCUUUAGGUAGGUACUUUGCAUCUGUCGAAUUUAAAUUCUAAACUCACACUGAUCAACAGAGGAUUGAGCAUCA
# B22: chr3:152464585:152464701:+|3pUTR|ENSG00000152601|msi1|FALSE|unique (ssRNA)
# RNA: GGGAGUUCUACAGUCCGACGAUCAUAUUUUUGAAAUCCCUGAGUAUCAGGCCUUGUUAUAAAUAAGCUGCAUAAUCAAUAAAUAGAACAAGGGACUUUUUGUUGAUAAUCCAAAUACUCAAAGUUUACGUAAUGAAAAUUAUACAACAGAGGAUUGAGCAUCA
# Biological target: T1, UNK ZnF1-6 (called full-length)
# Test: nsRBNS (natural sequence RNA bind-n-seq); RBNS binding buffer (assumed for nsRBNS): 25 mM Tris pH 7.5, 150 mM KCl, 3 mM MgCl2, 0.01% Triton X-100, 500 ug/ml BSA, 20 U/ml SUPERase-In, 4 C; UNK is unkempt and MSI1 is Musashi-1; names of the RNAs are library labels; protein concentration not given here; high values mean tight binding
row,Binder,binding signal
1,B1,0.843 enrichment R
2,B2,0.578 enrichment R
3,B3,0.407 enrichment R
4,B4,0.602 enrichment R
5,B5,0.352 enrichment R
6,B6,0.563 enrichment R
7,B7,1.12 enrichment R
8,B8,0.937 enrichment R
9,B9,1.15 enrichment R
10,B10,1.17 enrichment R
11,B11,0.381 enrichment R
12,B12,0.721 enrichment R
13,B13,0.364 enrichment R
14,B14,0.688 enrichment R
15,B15,0.902 enrichment R
16,B16,0.768 enrichment R
17,B17,0.678 enrichment R
18,B18,0.537 enrichment R
19,B19,0.836 enrichment R
20,B20,0.657 enrichment R
21,B21,0.371 enrichment R
22,B22,0.571 enrichment R

# — publication PMC12136788
